Laboratory results from PMC4336329 (PLoS ONE, 2015).
About 2,200 (0.71%) of roughly 310,000 compounds showed an effect of 50% or more. Effects have a minus sign here. Some of the results follow.

The molecules below were run against human ether-à-go-go-related gene (hERG) potassium channel (human, UniProt Q12809) (assay: primary screen, population patch clamp on CHO cells stably expressing hERG).
human ether-à-go-go-related gene (hERG) potassium channel, sequence (Q12809 whole entry, looked up): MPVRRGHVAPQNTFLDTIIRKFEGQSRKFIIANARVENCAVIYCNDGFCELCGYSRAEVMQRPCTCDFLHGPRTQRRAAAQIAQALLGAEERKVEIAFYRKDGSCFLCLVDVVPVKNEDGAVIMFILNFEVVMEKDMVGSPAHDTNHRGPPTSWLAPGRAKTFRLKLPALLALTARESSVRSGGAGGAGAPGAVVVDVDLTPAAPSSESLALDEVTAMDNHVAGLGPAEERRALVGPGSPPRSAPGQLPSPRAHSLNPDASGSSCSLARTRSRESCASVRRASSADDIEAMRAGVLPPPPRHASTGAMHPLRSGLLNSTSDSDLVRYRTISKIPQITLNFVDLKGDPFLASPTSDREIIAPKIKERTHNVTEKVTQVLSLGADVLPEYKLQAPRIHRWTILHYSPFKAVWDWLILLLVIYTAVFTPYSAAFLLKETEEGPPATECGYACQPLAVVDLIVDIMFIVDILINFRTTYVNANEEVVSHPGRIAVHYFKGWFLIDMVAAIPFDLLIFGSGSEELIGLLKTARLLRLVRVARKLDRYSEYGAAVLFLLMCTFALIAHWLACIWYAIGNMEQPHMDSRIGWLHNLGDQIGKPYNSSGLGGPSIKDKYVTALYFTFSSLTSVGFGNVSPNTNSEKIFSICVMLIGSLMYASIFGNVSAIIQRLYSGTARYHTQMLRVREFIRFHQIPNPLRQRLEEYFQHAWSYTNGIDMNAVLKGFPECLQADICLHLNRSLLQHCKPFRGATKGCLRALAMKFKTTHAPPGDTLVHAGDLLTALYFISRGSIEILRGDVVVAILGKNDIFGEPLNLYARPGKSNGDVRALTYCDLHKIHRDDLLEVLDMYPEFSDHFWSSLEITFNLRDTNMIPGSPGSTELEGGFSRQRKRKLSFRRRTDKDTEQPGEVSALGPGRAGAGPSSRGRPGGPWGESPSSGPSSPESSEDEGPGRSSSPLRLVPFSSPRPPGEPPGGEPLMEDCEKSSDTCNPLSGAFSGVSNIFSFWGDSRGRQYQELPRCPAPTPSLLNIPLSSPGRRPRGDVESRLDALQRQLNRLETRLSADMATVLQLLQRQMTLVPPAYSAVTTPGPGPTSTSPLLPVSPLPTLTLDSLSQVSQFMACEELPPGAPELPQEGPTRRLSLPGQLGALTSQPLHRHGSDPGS

Structure (SMILES)	hERG current change (%, negative = inhibition) at 1uM [%]
Cc1ccccc1-c1nn[nH]n1	7.4
CC1CCN(S(=O)(=O)N2CCC(C(=O)NC3CCCC3)CC2)CC1	7.39
S=C(NCCc1ccccn1)Nc1cc(Cl)cc(Cl)c1	6.26
CCOc1ccccc1NC(=O)C1CCCN(S(=O)(=O)c2cccc3nsnc23)C1 (centres unmarked)	3.98
Cc1ccc(NC(=O)c2c(C(F)(F)F)nn(C)c2Cl)cc1C	12.8
Cc1[nH]c2ccc(C(=O)OC(C)C(=O)NC3(C#N)CCCCC3)cc2c1C (centres unmarked)	13.7
COc1ccc(NC(=S)SC)cc1OC	3.26
O=C(Nc1ccccc1C(=O)Nc1cccnc1)c1ccccc1	10.1
O=C(Nc1cccc2ccccc12)OCc1cncs1	11.5
COC(=O)c1sc(S(=O)(=O)NCCC(=O)O)c(C(=O)OC)c1C	10.7
N#Cc1ccc(Oc2nc(C#N)cc(-c3ccccc3)n2)cc1	-0.666
CCCCOC(=O)Nc1cc(OC)c(Cl)cc1OC	1.4
CCOc1nc(Nc2ccc(Cl)cc2)nc(OCC)n1	12.1
O=C(CNC(=O)Cc1ccccc1)NCc1cccs1	9.79
COc1ccc(C2=Nc3ccc(Br)cc3C(c3ccccc3)N2CC(=O)NN)cc1 (centres unmarked)	-1.87
CC(C)C(C)NC(=O)CN1C(=O)NC2(CCc3ccccc3C2)C1=O (centres unmarked)	17.7
CN(c1ccccc1)c1nc(N)c([N+](=O)[O-])c(Nc2ccccc2F)n1	22.4
Cc1ccc(CSc2nc(N)cc(=O)[nH]2)cc1	12.9
O=C(Nc1ccc(Nc2ccccc2)cc1)c1cccc(F)c1	15.5
N#C/C(=C(\O)c1cc(Cl)sc1Cl)c1nc2ccccc2[nH]1	11.6
O=C(C[n+]1cc(-c2ccc(F)cc2)n2c1CCC2)c1cccs1.[Br-]	12.7
N#Cc1ccc(CSc2nnc(NC(=O)C3CC(=O)N(c4ccc5c(c4)OCCO5)C3)s2)cc1 (centres unmarked)	8.99
CC1=C(C(=O)OC(C)C)C(c2cccnc2)C2=C(CCCC2=O)N1 (centres unmarked)	11.5
C=CCn1c(-c2cc(OC)c(OC)c(OC)c2)n[nH]c1=S	6.57
Cc1ccc(C(=O)NCCN2CCOCC2)cc1S(=O)(=O)N1CCCCC1	-6.46
O=C(Nc1cccc(-c2nnc(-c3ccccc3)o2)c1)c1ccc(Br)o1	-17.3
